# Source: the supplement of paper PMC10126150
# Values marked as one replicate rest on one cluster of the flow cell; about a third of the high ones do not repeat.
# System: ATP
# Assay: switch fluorescence ratio, 500 uM ATP over buffer (Cy3 cluster intensity, sum of 5 cycles each) (fold (ratio)); higher = stronger signal-on switching upon ATP binding; sequences stand for … in TCGTCGGCAGCGTCAGATGTGTATAAGAGACAGTTTTTTTTTTTTTTTTTTTTTTTTT…TC
# Conditions: aptamer strand: ATP DNA aptamer (quencher-CACCTGGGGGAGTATTGCGGAGGAAGG + anchor), 100 nM annealed; ATP concentration: 500 uM; one replicate
# Outline: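 Imaging in selection buffer was followed by imaging after 15 min with 500 uM ATP at 22 °C, for Cy3-labelled switching-strand clusters annealed to 100 nM quencher-labelled ATP aptamer on a modified Illumina MiSeq flow-cell. Five of these buffer/ATP cycles ran, separated by NaOH stripping and re-annealing. The fluorescence ratio per cluster is summed target-cycle over summed buffer-cycle Cy3 intensity, averaged per switch-domain sequence; clusters outside 100-1000 RFU were removed.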
# 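Further: ATP exposure 15 min at 22 °C before imaging.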
row,Sequence,switch fluorescence ratio
1,TTTTCACATC,1.07
2,TTTTCACGGA,0.999
3,TTTTCATTGA,1.02
4,TTTTCCTATC,0.951
5,TTTTCCTCAT,1.06
6,TTTTCGAACA,1
7,TTTTCGACCA,1.15
8,TTTTCGGTAC,2.61
9,TTTTCGTCCG,1.04
10,TTTTCTAAGC,1.03
11,TTTTCTGTAA,0.998
12,TTTTCTTTAG,1.03
13,TTTTGCAACG,1
14,TTTTGCCCAG,1.05
15,TTTTGCTAAA,2.56
16,TTTTGGCACA,1.01
17,TTTTGGCATT,1.03
18,TTTTGTACTC,0.99
19,TTTTGTAGT,0.985
20,TTTTTACATG,1.03
21,TTTTTAG,1.01
22,TTTTTCCATG,0.977
23,TTTTTTAC,1.03
